Measurements taken from paper PMC4336329 (PLoS ONE, 2015).
Out of some 310,000 compounds screened, about 14,000 (4.5%) showed an effect of 50% or more. The effect is printed as a negative number. The list shows a part of the results.

Target: human ether-à-go-go-related gene (hERG) potassium channel (human, UniProt Q12809)
Assay: primary screen, population patch clamp on CHO cells stably expressing hERG
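Also: peak tail current of the secondary pulse compared with the same well before compound.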

Sequence of human ether-à-go-go-related gene (hERG) potassium channel (Q12809 whole entry, looked up): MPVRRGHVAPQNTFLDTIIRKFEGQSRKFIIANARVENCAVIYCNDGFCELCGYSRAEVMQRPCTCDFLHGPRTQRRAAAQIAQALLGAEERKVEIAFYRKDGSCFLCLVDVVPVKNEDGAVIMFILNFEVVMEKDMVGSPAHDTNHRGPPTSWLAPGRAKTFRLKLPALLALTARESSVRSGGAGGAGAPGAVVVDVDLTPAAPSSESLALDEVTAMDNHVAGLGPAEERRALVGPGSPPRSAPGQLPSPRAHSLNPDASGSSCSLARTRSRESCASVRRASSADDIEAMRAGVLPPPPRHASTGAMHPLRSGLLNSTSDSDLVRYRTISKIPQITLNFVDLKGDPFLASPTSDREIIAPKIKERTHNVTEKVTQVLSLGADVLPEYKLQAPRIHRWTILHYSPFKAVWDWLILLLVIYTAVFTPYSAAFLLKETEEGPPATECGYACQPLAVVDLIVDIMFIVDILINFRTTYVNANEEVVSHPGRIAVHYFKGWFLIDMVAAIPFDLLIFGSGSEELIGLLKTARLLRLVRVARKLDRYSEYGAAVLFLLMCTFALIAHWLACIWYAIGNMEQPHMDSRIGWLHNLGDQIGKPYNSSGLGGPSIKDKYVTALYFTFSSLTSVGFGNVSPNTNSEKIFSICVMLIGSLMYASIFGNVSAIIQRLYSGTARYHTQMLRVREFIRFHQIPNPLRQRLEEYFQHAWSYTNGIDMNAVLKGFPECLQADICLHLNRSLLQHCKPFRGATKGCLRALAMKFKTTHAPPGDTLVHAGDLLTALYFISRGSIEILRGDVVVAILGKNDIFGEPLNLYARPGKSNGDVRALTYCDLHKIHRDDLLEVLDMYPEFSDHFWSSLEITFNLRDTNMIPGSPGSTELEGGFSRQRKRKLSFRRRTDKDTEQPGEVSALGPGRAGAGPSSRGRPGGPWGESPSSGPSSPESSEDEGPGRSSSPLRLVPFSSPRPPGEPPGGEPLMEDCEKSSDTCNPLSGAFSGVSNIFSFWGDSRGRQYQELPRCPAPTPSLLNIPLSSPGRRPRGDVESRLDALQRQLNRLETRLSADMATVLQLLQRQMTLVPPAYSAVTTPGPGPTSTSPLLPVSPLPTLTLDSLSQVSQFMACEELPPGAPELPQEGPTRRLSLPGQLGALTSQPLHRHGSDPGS

| Structure (SMILES) | hERG current change (%, negative = inhibition) at 10uM [%] |
| --- | --- |
| CC(=O)Nc1cccc(NC(=S)Nc2cccc3ccccc23)c1 | 7.09 |
| O=C(c1ccc(C(F)(F)F)cc1)C1CCCN(C(=O)CCn2cncn2)C1 (stereo not shown) | -33.8 |
| COc1ccc(N2CCCn3c2nc2c3c(=O)n(CCN3CCOCC3)c(=O)n2C)cc1 | -14 |
| Cc1ccc(-c2ccc(SCC(=O)NC3CCCCC3)nn2)cc1 | 9.69 |
| CC(C)(C)OC(=O)CC[C@@H](C(=O)NCCCCCCCCCCC(=O)N1CCN(C(=O)OC(C)(C)C)CC1)n1cc(CCCCCNC(=O)OC(C)(C)C)nn1 | 4.12 |
| COc1ccccc1OCC(=O)Nc1cc(Cl)ccc1Oc1ccccc1 | -2.49 |
| O=C(CNCC1CCCO1)Nc1ccccc1N1CCCCCC1.O=C(O)C(=O)O (stereo not shown) | -6.51 |
| CCC(=O)N1CCN(C(=O)c2ccccc2)CC1 | 1.82 |
| CC1CN(c2ccc([N+](=O)[O-])cc2F)CCN1C(=O)c1ccco1 (stereo not shown) | -62 |
| Cc1cc(C)n(CC(=O)NC2CCCc3c2cnn3-c2ccccc2F)n1 (stereo not shown) | -0.23 |
| CCCc1cc(=O)[nH]c(SCC(=O)N2CCc3ccccc3C2)n1 | -4.59 |
| Cc1noc(C)c1S(=O)(=O)N1CCC(C(=O)Nc2ccc(Br)cc2)CC1 | 5.84 |
| CC(=O)Nc1ccc(/C(C)=N/Nc2nc(Nc3ccccc3)nc(N3CCOCC3)n2)cc1 | -2.38 |
| CC(=O)Nc1ccc(NC(=O)c2ccc(CSc3ccccc3)o2)cc1 | 17 |
| O=C(O)Cn1cc(/C=C/[N+](=O)[O-])c2ccccc21 | 24.2 |
| CC(=O)c1c(O)cc(=O)n(-c2ccccc2)c1-c1ccc(Cl)cc1 | 22 |
| CSCCC(NS(=O)(=O)c1ccc2c(c1)c(=O)n(C)c(=O)n2C)C(=O)NC1CCN(Cc2ccccc2)CC1 (stereo not shown) | -14.5 |
| COc1ccc(Cc2nc3ccc(C(=O)N4CCCC4)cc3o2)cc1OC | 12.8 |
| Cc1ccc(C)c(NC(=O)CSc2nc(C)cs2)c1 | 1.23 |
| O=C(NCc1ccccc1F)C1CCN(S(=O)(=O)c2ccccc2)CC1 | -12.1 |
| O=C(NCc1ccccn1)C(=O)Nc1ccccc1 | -2.8 |
| CC(=O)Nc1sc(N/N=C/c2ccc(O)cc2)nc1-c1ccc(C)cc1 | 11 |
| Cc1ccc(S(=O)(=O)N(Cc2c(F)cccc2Cl)C(=O)N2CCN(C)CC2)cc1 | -1.1 |
| Cc1ccccc1NC(=O)c1cc2c(C)nc3ccccc3c2o1 | 5.86 |
| O=C(NCC(c1ccco1)N1CCN(c2ccccc2F)CC1)c1ccco1 (stereo not shown) | -2.63 |
| COc1ccccc1C(=O)NCCC(=O)N1CC(=O)Nc2ccccc21 | 14.3 |
| Fc1ccc(NC(=S)Nc2cc(-c3ccccc3)[nH]n2)cc1Cl | 5.06 |
| CCN(CC)c1ccc(C=NCCNS(=O)(=O)c2ccc(C)cc2)cc1 | 24.6 |

| Structure (SMILES) | hERG current change (%, negative = inhibition) at 10uM [%] |
| --- | --- |
| COc1ccc(/C=C2/C(=O)ON=C2C)cc1Br | 20.1 |
| Cc1ccc(S(=O)(=O)NNC(=O)c2cnn(-c3ccccc3)c2-n2cccc2)cc1 | -15 |
| COC(=O)C1Sc2[nH]c(=O)sc2C2c3ccccc3OC(=O)C12 (stereo not shown) | -22.6 |
| CC(=O)Nc1ccc(NC(=O)c2cc(S(=O)(=O)N3CCCCC3)ccc2C)cc1 | 5.45 |
| Cc1cc(OCC(=O)Nc2c(C)n(C)n(-c3ccccc3)c2=O)ccc1[N+](=O)[O-] | -23.5 |
| Cc1nc2ccc(C(=O)NCc3ccc4c(c3)OCO4)cc2s1 | 16.8 |
| CCOC(=O)C(=O)N1CCN(c2cc3c(cc2[N+](=O)[O-])n(C)c(=O)n3C)CC1 | -24.2 |
| COc1ccccc1N1CCN(/N=C/c2cccc(Cl)c2)CC1 | 15.6 |
| CNC(=O)CCn1nc(-c2ccc(Cl)cc2)c2ccccc2c1=O | -15.7 |
| Cc1ccc([N+](=O)[O-])cc1NC(=O)CCc1ccccc1 | 3.43 |
| CC(C)[C@H](N)c1cn([C@@H](CO)C(=O)N2CCNCC2)nn1 | 10.8 |
| CCOC(=O)COc1ccc(Cl)cc1C1NC(=O)NC(C)=C1C(C)=O (stereo not shown) | 10.1 |
| COC(=O)C1=C(C)NC2=C(C(=O)CC(C)(C)C2)C1c1ccccn1 (stereo not shown) | -1.57 |
| CN1CCN(C(=O)CCN2C(=O)/C(=C\c3ccccc3F)SC2=S)CC1 | 5.03 |
| c1ccc(-n2c(SCc3ccncc3)nnc2-c2ccco2)cc1 | -25 |
| COc1ccc(S(=O)(=O)NNC(=O)c2cc3cc4ccccc4nc3s2)cc1 | 5.94 |
| CCN(CC)C(=O)NC1CC(=O)N(c2ccc(OC)cc2)C1 (stereo not shown) | 16.3 |
| COc1cccc(NC(=O)Cc2ccc(C)cc2)c1 | -1.94 |
| COC(=O)c1cc(NS(=O)(=O)c2ccc(N3CCOCC3)c([N+](=O)[O-])c2)cc(C(=O)OC)c1 | 9.23 |
| CCCCN(CC)Cc1ccc(CNC(=O)Nc2ccccc2)o1 | -9.65 |
| CC(C)(C)c1ccc(S(=O)(=O)N2CCc3nc4ccccc4c(C(=O)O)c3C2)cc1 | 16.1 |
| COc1ccccc1C(=O)NCCC(=O)NCCOc1ccccc1 | 8.24 |
| COc1ccc(/C=N/Nc2nc(N3CCCCC3)nc(N3CCCCC3)n2)cc1[N+](=O)[O-] | -11.3 |
| COc1ccc(Oc2ccccc2/C=C/C(=O)O)cc1 | 15.7 |
| O=C(CN1CCN(c2cccc(Cl)c2)CC1)Nc1nccs1 | -31.5 |
| CC(NC(=O)c1cccs1)c1n[nH]c(=S)n1C (stereo not shown) | 12.9 |
| CCOC(=O)CC(=O)CSc1nccc(-c2cccnc2)n1 | 4.57 |
